Assay results taken from the supplement of paper PMC4604168 (melanoma cell lines).
The other results are listed elsewhere or left out. Repeats are few or missing, and single values can be far off.

Test system: COLO800
Assay: cell count relative to DMSO control; melanoma cells; higher = more viable cells
Settings: library dose: low library concentration; 72 h
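Also: cell number obtained by counting DAPI-stained nuclei in high-throughput microscope images with image analysis software, screen run in 1,536-well plates.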

Row | Compound | cell count
1 | N#CC[C@H](C1CCCC1)n1cc(-c2ncnc3[nH]ccc23)cn1 [ruxolitinib] + Nc1cccc2c1CN(C1CCC(=O)NC1=O)C2=O [lenalidomide] (first compound 1 µM, partner dose 1 µM) | 106%
2 | CC[C@]1(O)C[C@H]2CN(CCc3c([nH]c4ccccc34)[C@@](C(=O)OC)(c3cc4c(cc3OC)N(C=O)[C@H]3[C@@](O)(C(=O)OC)[C@H](OC(C)=O)[C@]5(CC)C=CCN6CC[C@]43[C@@H]65)C2)C1 [vincristine] + C#Cc1cccc(Nc2ncnc3cc(OCCOC)c(OCCOC)cc23)c1 [erlotinib] (first compound 0.0001 µM, partner dose 0.8 µM) | 86.4%
3 | CC[C@]1(O)C[C@H]2CN(CCc3c([nH]c4ccccc34)[C@@](C(=O)OC)(c3cc4c(cc3OC)N(C=O)[C@H]3[C@@](O)(C(=O)OC)[C@H](OC(C)=O)[C@]5(CC)C=CCN6CC[C@]43[C@@H]65)C2)C1 [vincristine] + Nc1cccc2c1CN(C1CCC(=O)NC1=O)C2=O [lenalidomide] (first compound 0.0001 µM, partner dose 1 µM) | 112%
4 | N#CC[C@H](C1CCCC1)n1cc(-c2ncnc3[nH]ccc23)cn1 [ruxolitinib] + NC1(c2ccc(-c3nc4ccn5c(=O)[nH]nc5c4cc3-c3ccccc3)cc2)CCC1 [MK2206] (first compound 1 µM, partner dose 0.4 µM) | 153%
5 | N#CC[C@H](C1CCCC1)n1cc(-c2ncnc3[nH]ccc23)cn1 [ruxolitinib] + C#Cc1cccc(Nc2ncnc3cc(OCCOC)c(OCCOC)cc23)c1 [erlotinib] (first compound 1 µM, partner dose 0.8 µM) | 74.1%
